The source of these data is PubChem BioAssay AID179 (DTP/NCI, 2004).

The structures appear in SMILES notation. The source holds more than one record for some entries. Only these are listed. The source may hold further records. The records of an entry repeat one measurement (runs, samples, wells, individuals or studies). A tag in brackets gives the origin of a value. The letters are not those of the source and start again with each entry.

The test system of the test is CEM cells HIV-1 protection, formazan growth assay. Description: NCI AIDS Antiviral Assay. As to conditions: for IC50: measured here: growth of uninfected CEM cells. Put shortly:
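Steps: treat uninfected and HIV-1-infected human CEM cells at five drug levels; quantify growth by soluble formazan; retest any compound reaching 50% protection; classify actives from the retest.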

`CCCCCCCCCCCCCCCCOP(=O)(O)OP(=O)(O)OCC1OC(n2ccc(N)nc2=O)C(O)C1O` (stereo not drawn): the IC50 is 195 µM [sample A] and 603 nM [sample B]. In the case of `NC1(C(=O)O)CSSC1`, the EC50 was 6.76 µM [sample A] and > 1.51 mM [sample B].

With `CC(=O)Oc1ccc2c(c1)Oc1cc(OC(C)=O)ccc1C21OC(=O)c2ccccc21`, the IC50 is 10.5 µM [sample A] and > 200 µM [sample B].
